Consider 9 cell lines from the supplement of paper PMC4967469.

In general, IC50 refers to the concentration that inhibits the measured activity by half.

Holding throughout (assay): Viability of human cancer cell lines after 72 h of drug (GDSC screen)
Compound in one assay: O=C(NC(COc1ccc2[nH]c(=O)[nH]c2c1)c1ccccc1)c1cccn(Cc2ccc(F)c(F)c2)c1=O [KIN001-244]
Particulars: top dose 20 µM; top dose inferred. As to the method:
(§1)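 Human cancer cell lines in 384-well plates, medium with 10% serum, drug for 72 h over a 256-fold dose range (nine 2-fold or five 4-fold steps up to the top dose). Adherent lines were fixed and stained with the nucleic acid dye Syto60, suspension lines read with resazurin; signal relative to control wells, capped at 0 and 100%. One two-parameter sigmoid per drug and line, fitted in a mixed model over all curves with the slope shared within a line.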

Compound in another assay: COc1cc2nccc(Oc3ccc(NC(=O)Nc4cc(C)on4)c(Cl)c3)c2cc1OC [AV-951]
Particulars: top dose 0.128 µM; top dose inferred. As to the method:
as §1

Compound in another assay: CC(=O)Nc1cccc(-n2c(=O)n(C3CC3)c(=O)c3c(Nc4ccc(I)cc4F)n(C)c(=O)c(C)c32)c1 [Trametinib]
Particulars: top dose 1 µM. As to the method:
as §1

Compound in a further assay: CCN1CCN(Cc2ccc(NC(=O)c3ccc(C)c(/C=C/c4cnc5[nH]ccc5c4OC)c3)cc2C(F)(F)F)CC1 [HG-6-64-1]
To be noted: top dose 5.12 µM; top dose inferred. As to the method:
as §1

Compound in a further assay: CCc1cncnc1N1CCN(Cc2nc3ccc(C(F)(F)F)cc3[nH]2)CC1 [PF-4708671]
Particulars: top dose 10 µM; top dose inferred. The method, then: as §1

Compound in the next assay: CCNC(=O)C[C@@H]1N=C(c2ccc(Cl)cc2)c2cc(OC)ccc2-n2c(C)nnc21 [I-BET-762]
To be noted: top dose 20 µM; top dose inferred. The method, then: as §1

Compound in another assay: Nc1ccccc1NC(=O)c1ccc(CNC(=O)OCc2cccnc2)cc1 [MS-275]
Particulars: top dose 5 µM; top dose inferred. The method, then:
as §1

IC50 is the fitted dose that halves viability relative to control wells, and lower means more sensitive; fits outside the tested doses are given as limits. For AUC the same curve is integrated over the 256-fold range of doses and scaled to a fraction; the more sensitive the line, the further below 1. For part of these data: An inferred top dose is not printed in the source and was worked back from the curve model. Bounds are passed on as bounds.

NCI-H720 (lung carcinoid, suspension): the AUC in the assay with KIN001-244 was determined as 0.985; with AV-951, 0.99; with Trametinib it was 0.985; in the assay with HG-6-64-1 it was 0.992; with PF-4708671, 0.992; with I-BET-762, 0.98. The AUC in the assay with MS-275 was found to be 0.792. The IC50 with KIN001-244 was > 20 µM; with AV-951, > 0.128 µM; in the assay with Trametinib, > 1 µM; with HG-6-64-1, > 5.12 µM; with PF-4708671, > 10 µM; with I-BET-762 it was > 20 µM. Also, in the assay with MS-275, the IC50 stood at 2.05 µM.
As to NCI-H747 (large intestine, adherent), the AUC with KIN001-244 amounted to 0.873; with AV-951, 0.981; with Trametinib, 0.158; with HG-6-64-1, 0.713; with PF-4708671, 0.97; with I-BET-762, 0.864. Moreover, in the assay with MS-275, the AUC amounted to 0.785. The IC50 with KIN001-244 was > 20 µM; with AV-951 it was > 0.128 µM; with Trametinib, 0.00417 µM; with HG-6-64-1 it was 1.49 µM; in the assay with PF-4708671 it was > 10 µM; with I-BET-762 it was > 20 µM. The IC50 with MS-275 was 2.67 µM.
Take “NCI-H847 (small cell lung carcinoma, adherent)”: the AUC turned out to be 0.794 with KIN001-244; 0.976 with AV-951; 0.992 with Trametinib; 0.919 in the assay with HG-6-64-1; 0.988 in the assay with PF-4708671; 0.685 with I-BET-762. Also, in the assay with MS-275, the AUC came out at 0.688. The IC50 was 7.33 µM with KIN001-244; > 0.128 µM in the assay with AV-951; > 1 µM with Trametinib; > 5.12 µM with HG-6-64-1; > 10 µM with PF-4708671; 3.66 µM in the assay with I-BET-762. Also, in the assay with MS-275, the IC50 came to 0.932 µM.
Turning to “NCI-H1092 (small cell lung carcinoma, suspension)”, the AUC with KIN001-244 turned out to be 0.864; with AV-951 it was 0.972; with Trametinib, 0.982; in the assay with HG-6-64-1 it was 0.99; in the assay with PF-4708671 it was 0.972; in the assay with I-BET-762 it was 0.927. Also, the AUC in the assay with MS-275 came out at 0.789. Further, the IC50 in the assay with KIN001-244 is 17.7 µM; with AV-951 it was > 0.128 µM; in the assay with Trametinib, > 1 µM; with HG-6-64-1 it was > 5.12 µM; with PF-4708671, > 10 µM; with I-BET-762, > 20 µM. Besides, in the assay with MS-275, the IC50 turned out to be 2.23 µM.
Consider “NCI-H1155 (large cell lung carcinoma, suspension)”, for which the AUC with KIN001-244 was determined as 0.946; with AV-951, 0.987; with Trametinib, 0.983; in the assay with HG-6-64-1, 0.993; in the assay with PF-4708671 it was 0.952; with I-BET-762 it was 0.867. The AUC with MS-275 was determined as 0.886. Besides, the IC50 in the assay with KIN001-244 was > 20 µM; in the assay with AV-951 it was > 0.128 µM; in the assay with Trametinib, > 1 µM; in the assay with HG-6-64-1, > 5.12 µM; with PF-4708671, > 10 µM; in the assay with I-BET-762, 12.9 µM. For the same cell line, in the assay with MS-275, the IC50 is 3.82 µM.
As for “NCI-H1304 (small cell lung carcinoma, suspension)”, the AUC with KIN001-244 was determined as 0.987; with AV-951, 0.988; with Trametinib, 0.986; with HG-6-64-1, 0.978; in the assay with PF-4708671, 0.947; with I-BET-762, 0.985. In addition, the AUC in the assay with MS-275 is 0.831. For the same cell line, the IC50 is > 20 µM in the assay with KIN001-244; > 0.128 µM with AV-951; > 1 µM in the assay with Trametinib; > 5.12 µM in the assay with HG-6-64-1; > 10 µM in the assay with PF-4708671; > 20 µM with I-BET-762. Also, the IC50 in the assay with MS-275 worked out at 3.52 µM.
With “NCI-H1355 (lung adenocarcinoma, adherent)”, the AUC was determined as 0.971 in the assay with KIN001-244; 0.977 with AV-951; 0.513 with Trametinib; 0.745 with HG-6-64-1; 0.918 with PF-4708671; 0.978 with I-BET-762. Also, in the assay with MS-275, the AUC is 0.749. Also, the IC50 was > 20 µM in the assay with KIN001-244; > 0.128 µM with AV-951; 0.0687 µM with Trametinib; 2.26 µM with HG-6-64-1; > 10 µM with PF-4708671; > 20 µM with I-BET-762. Besides, the IC50 with MS-275 came to 2.29 µM.
As to “NCI-H1395 (lung adenocarcinoma, adherent)”, the AUC in the assay with KIN001-244 came to 0.903; with AV-951, 0.982; with Trametinib, 0.837; in the assay with HG-6-64-1, 0.973; with PF-4708671 it was 0.946; in the assay with I-BET-762 it was 0.978. For the same cell line, the AUC with MS-275 was found to be 0.777. In addition, the IC50 in the assay with KIN001-244 is > 20 µM; in the assay with AV-951 it was > 0.128 µM; in the assay with Trametinib it was > 1 µM; with HG-6-64-1 it was > 5.12 µM; with PF-4708671 it was > 10 µM; with I-BET-762 it was > 20 µM. Besides, in the assay with MS-275, the IC50 was 2.72 µM.
Consider “NCI-H1417 (small cell lung carcinoma, suspension)”, for which the AUC is 0.881 with KIN001-244; 0.974 with AV-951; 0.308 with Trametinib; 0.982 with HG-6-64-1; 0.847 in the assay with PF-4708671; 0.906 with I-BET-762. Besides, in the assay with MS-275, the AUC came to 0.365. For the same cell line, the IC50 was > 20 µM in the assay with KIN001-244; > 0.128 µM with AV-951; 0.0162 µM in the assay with Trametinib; > 5.12 µM with HG-6-64-1; 9.62 µM with PF-4708671; > 20 µM in the assay with I-BET-762. Also, the IC50 with MS-275 worked out at 0.123 µM.
